# From publication PMC4336329 (PLoS ONE, 2015)
# Screen size: about 310,000 compounds; about 2,200 (0.71%) showed an effect of 50% or more. The effect is printed as a negative number. The list shows a part of the results.
# Target: human ether-à-go-go-related gene (hERG) potassium channel (human, UniProt Q12809)
# Assay: primary screen, population patch clamp on CHO cells stably expressing hERG
# Chain of human ether-à-go-go-related gene (hERG) potassium channel (Q12809 whole entry, looked up): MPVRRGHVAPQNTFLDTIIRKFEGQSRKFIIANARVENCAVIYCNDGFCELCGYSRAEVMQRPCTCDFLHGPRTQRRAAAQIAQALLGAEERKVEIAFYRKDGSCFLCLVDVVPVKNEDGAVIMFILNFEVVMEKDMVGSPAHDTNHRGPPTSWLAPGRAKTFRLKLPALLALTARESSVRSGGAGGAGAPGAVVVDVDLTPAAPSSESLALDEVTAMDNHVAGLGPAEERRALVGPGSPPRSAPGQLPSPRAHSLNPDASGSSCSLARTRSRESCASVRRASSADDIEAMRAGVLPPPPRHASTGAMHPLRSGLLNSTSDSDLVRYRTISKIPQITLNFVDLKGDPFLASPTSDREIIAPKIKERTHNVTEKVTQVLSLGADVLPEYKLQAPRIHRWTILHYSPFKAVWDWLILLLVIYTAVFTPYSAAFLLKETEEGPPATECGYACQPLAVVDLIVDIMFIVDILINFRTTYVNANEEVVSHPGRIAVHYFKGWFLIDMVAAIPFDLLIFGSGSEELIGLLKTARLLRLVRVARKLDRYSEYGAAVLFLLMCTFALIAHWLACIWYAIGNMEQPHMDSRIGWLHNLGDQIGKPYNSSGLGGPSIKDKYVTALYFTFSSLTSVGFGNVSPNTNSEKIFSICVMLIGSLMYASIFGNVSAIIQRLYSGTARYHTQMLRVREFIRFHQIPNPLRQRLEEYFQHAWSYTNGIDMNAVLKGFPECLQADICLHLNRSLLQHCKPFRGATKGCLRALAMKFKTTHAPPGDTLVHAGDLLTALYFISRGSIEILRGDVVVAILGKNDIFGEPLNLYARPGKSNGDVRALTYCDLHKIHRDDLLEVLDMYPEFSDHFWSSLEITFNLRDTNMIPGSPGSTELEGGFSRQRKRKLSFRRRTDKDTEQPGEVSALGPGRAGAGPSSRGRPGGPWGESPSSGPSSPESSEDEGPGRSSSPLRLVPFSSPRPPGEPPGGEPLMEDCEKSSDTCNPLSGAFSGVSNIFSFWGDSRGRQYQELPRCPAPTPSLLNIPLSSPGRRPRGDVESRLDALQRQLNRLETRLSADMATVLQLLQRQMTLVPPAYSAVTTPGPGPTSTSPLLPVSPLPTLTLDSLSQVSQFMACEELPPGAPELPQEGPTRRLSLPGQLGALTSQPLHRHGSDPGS
row,SMILES,"hERG current change (%, negative = inhibition) at 1uM [%]"
1,CCCCNC1c2ccccc2C(=O)N1Cc1ccccc1.Cl (stereo not shown),14
2,COc1cc(CC(=O)OCC(=O)Nc2sccc2C(N)=O)cc(OC)c1OC,19
3,COc1cc(/C=N/N2CCOCC2)ccc1OCc1ccccc1,14.8
4,COCCNC(=O)NC(=O)CSc1nc(C)c(C)c(C)n1,5.2
5,COc1cc(/C=C2\SC(=S)N(NS(=O)(=O)c3ccc(C)cc3)C2=O)cc(OC)c1OC,9.52
6,COc1cc(OC)cc(C(=O)NC(C(=O)Nc2ccc3c(c2)OCO3)C(C)C)c1 (stereo not shown),13.5
7,CN(C)S(=O)(=O)n1cc(/C=C(\NC(=O)c2ccccc2Cl)C(=O)N2CCOCC2)c2ccccc21,13.6
8,CCOC(=O)c1cccc(N2C(=O)Nc3ccccc3N2O)c1,5.42
9,COc1ccc(CCC(=O)Nc2ncc(C)s2)cc1,8.76
10,Cc1nonc1C(=O)N/N=C/c1ccccc1,15.8
11,O=C(O)C(=O)O.OCC1CCCCN1CC(O)COC(c1ccc(F)cc1)c1ccc(F)cc1 (stereo not shown),-60.9
12,Cc1cc(C)nc(N/N=C/c2ccccc2OCc2ccc(Br)cc2)n1,24.4
13,C=CCc1c(C)nc(SC)nc1Nc1ccc(C(=O)O)cc1,6.6
14,Cc1cc(C)n(CCN(C)C(=O)c2cc(COc3c(F)cccc3F)on2)n1,9.28
15,CCOC(=O)/C=c1\s/c(=C\c2ccc(C#N)cc2)c(=O)n1CC(=O)Nc1cccc(C)c1C,12.2
16,N#C/C(=C\c1c(N2CCCCC2)nc2ccccn2c1=O)C(=O)NCc1ccco1,-1.26
17,O=C(Cn1nnc(-c2ccccc2)n1)NNC(=O)c1ccc(Br)cc1,13.4
18,COc1cc2nc(CCc3ccccc3)oc(=O)c2cc1OC,3.38
19,O=C(CSC1=NC2(CCCCCC2)N=C1c1ccccc1)Nc1ccc2c(c1)OCCO2,-3.79
20,COc1ccc(/C=C/C(=O)c2ccncc2)c2ccccc12,6.8
21,Nc1cccc(-c2nc3ccc(N)cc3s2)c1,3.6
22,CSc1cccc(CN(C)C(=O)C2CCC(=O)N(CCCN3CCCC3=O)C2)c1 (stereo not shown),14.4
23,Cc1ccccc1OCC(=O)Nc1ccc(N2CCN(C(=O)c3ccco3)CC2)cc1,2.21
24,CN1CCN(Cc2oc(CO)cc(=O)c2O)CC1,6.31
25,O=C(c1ccc(Cl)cc1)N1CCc2ccccc21,-3.3
26,O=C(Cn1nnc(-c2ccc(Cl)cc2)n1)N1CCN(C(=O)c2ccco2)CC1,1.64
27,Cc1cc(C(F)(F)F)nn1-c1nc(-c2ccco2)cc(C(F)(F)F)n1,2.88
28,COc1ccc(N2CCN(C(=O)C3CCN(C(=O)c4cccc(Cl)c4)CC3)CC2)cc1,3.92

row,SMILES,"hERG current change (%, negative = inhibition) at 1uM [%]"
1,CCN(CC)S(=O)(=O)c1ccc(OC)c(NC(=O)CCS(=O)(=O)Cc2ccccc2)c1,12.4
2,CCN(CC)C(=O)C1CCCN(c2ccc([N+](=O)[O-])cc2/C=N/NC(=O)c2cccc(Br)c2)C1 (stereo not shown),6.97
3,Cc1ccc(C(=O)N2CCCN(c3nc4cc5c(cc4cc3C#N)OCO5)CC2)cc1,15.9
4,CCN(C(=O)COc1cccnc1[N+](=O)[O-])C1CCS(=O)(=O)C1 (stereo not shown),7.81
5,CCOC(=O)[C@@H]1[C@H]2COc3ccc(Br)cc3[C@@H]2N2C(=O)N(c3ccc(C(F)(F)F)cc3)C(=O)[C@@]12C,7.49
6,Cc1cc(C)c(OCC(=O)OCC(=O)N2CCc3ccccc3C2)c(C)c1,11.6
7,COc1ccc(C(c2c(NC(C)=O)sc3c2CCCC3)N2CCN(CCO)CC2)cc1OC (stereo not shown),8.62
8,CCN(C(=O)CCS(=O)(=O)c1cccc2nsnc12)c1cccc(C)c1,8.98
9,Cc1ccc2ccc(C)[n+](CCCS(=O)(=O)[O-])c2c1,13.9
10,O=C(CNC(=O)c1ccccc1F)NCCN1C(=O)S/C(=C\c2ccc3c(c2)OCO3)C1=O,2.45
11,Cc1c(C(=O)N(C)C)c2ccc(Cl)cc2n1O,11.5
12,CC(=O)/C=C(\C)Nc1c(C)n(C)n(-c2ccccc2)c1=O,11.1
13,Cc1nc(N2CCOCC2)c2c(C)c(C(=O)Nc3ccc(F)cc3Cl)sc2n1,13.8
14,COC(=O)c1ccccc1OCCCOc1ccc(C=O)cc1OC,5.43
15,Cc1nc(C)c(/C(O)=C/c2nc3ccccc3oc2=O)s1,13
16,CCc1ccc(OCc2nnc(SCCN3CCOCC3)n2CC)cc1.O=C(O)C(=O)O,-5.65
17,O=C1C=C(c2ccccc2)CC(/C=C/c2ccccc2)C1 (stereo not shown),9.67
18,Clc1ccc2nnnc(-c3ccccc3)c2c1,8.12
19,COc1ccc(NC(=S)N2CCN(CCN=CC3=C(O)CC(c4ccccc4)CC3=O)CC2)cc1 (stereo not shown),1.43
20,Cc1ccc(CSc2nc(-c3ccccc3)c(C#N)c(=O)[nH]2)cc1,11.5
21,COc1ccc(C(=O)N2CCCC(CO)(Cc3ccccc3C)C2)o1 (stereo not shown),1.62
22,CCOC(=O)c1cnn(-c2ccccc2)c1NC(=O)c1ccc(C)cc1,-14.6
23,O=C(c1csc2ccccc12)N1CCN(c2ccccn2)CC1,-6.14
24,CCC(CC)C(=O)Nc1c(C)n(C)n(-c2ccccc2)c1=O,11.3
25,CNC(=S)N1N=C(c2ccc(Br)cc2)CC1c1ccc(OC)cc1 (stereo not shown),14.6
26,CCN(CC)CCNC(=O)Cn1cnc2sc(C)c(S(=O)(=O)N3CCN(c4ncccn4)CC3)c2c1=O,13.8
27,Nc1c(C(=O)CSc2nncn2-c2ccccc2)c(=O)[nH]c(=O)n1C1CC1,4.81
